Assay in all cases: Primary Screen for Target Class Profiling of Small Molecule Inhibitors of Methyltransferases
The target in assay [1] is Glycine N-methyltransferase (Homo sapiens) (UniProt Q14749). Conditions: purified enzyme, MTase-Glo SAH luminescence; measured here: GNMT inhibition; at 40 µM; stronger effect = lower value. In short, it runs like this:
(§1)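 Each enzyme was assayed with SAM and its substrate. SAH formation detected by MTase-Glo luminescence; single-point 40 uM screen[…].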

Assay [2] deals with Guanidinoacetate N-methyltransferase (Homo sapiens) (UniProt Q14353). The settings on record: purified enzyme, MTase-Glo SAH luminescence; measured here: GAMT inhibition; at 40 µM; stronger effect = lower value. Summed up:
as §1

In assay [3] the target is Histamine N-methyltransferase (Homo sapiens) (UniProt P50135). Conditions: purified enzyme, MTase-Glo SAH luminescence; measured here: HNMT inhibition; at 40 µM; stronger effect = lower value. In short, it runs like this:
as §1

The target of assay [4] is Nicotinamide N-methyltransferase (Homo sapiens) (UniProt P40261). The settings on record: purified enzyme, MTase-Glo SAH luminescence; measured here: NNMT inhibition; at 40 µM; stronger effect = lower value. Summed up:
as §1

The target of assay [5] is Phenylethanolamine N-methyltransferase (Homo sapiens) (UniProt P11086). The settings on record: purified enzyme, MTase-Glo SAH luminescence; measured here: PNMT inhibition; at 40 µM; stronger effect = lower value. In short, it runs like this: as §1

The structures appear in SMILES notation. Some of the results follow. Further columns of the screen follow, without active or inactive calls.
On the % scale 0 is the no-effect control and ±100 the full control effect.

With `COc1cc(OC)c(NC(=O)N2CCn3c(C)ccc3C2C(C)C)cc1Cl` (stereo not given), the activity change, negative = inhibition in assay [1] is -3.34%; in assay [2] it was 2.33%; in assay [3], -17.8%; in assay [4], -9.33%; in assay [5] it was -6.48%.
The matching figures for `CN(C)c1ccc2ncc(Nc3ccc(Cl)cn3)n2n1`: -12%, -2.18%, -20%, -6.89% and -4.41%.
For `C=CC(C)(CC/C=C(\C)C(=O)OC)OC1OC(COC(=O)CC(C)(O)CC(=O)O)C(OC2OC(CO)C(O)C(O)C2O)C(O)C1O` (stereo not given), the activity change, negative = inhibition is 0% in assay [1]; 6.57% in assay [2]; 5.62% in assay [3]; -7.27% in assay [4]; 5.35% in assay [5].
In the case of `O=c1c2ccccc2n2c(-c3ccc(Br)cc3)nnc2n1Cc1ccccc1`, the activity change, negative = inhibition in assay [1] is -0.74%; in assay [2], 0%; in assay [3], 2.34%; in assay [4], 5.32%; in assay [5] it was -0.61%.
In the same order, the values of `CSc1cccc(N2C(=O)c3cc(-c4ccco4)nn3CC2(C)C(=O)NC2CCCCC2)c1` (stereo not given) are -18.3%, -11.9%, -8.22%, -8.99% and -8.32%.
The matching figures for `CC(=O)NC(Cc1ccccc1)C(=O)O` (stereo not given): 0%, -11.4%, -3.25%, -20.5% and -3.2%.
In the same order, the values of `CCCNC(=O)N(C1CCOCC1)C1CCN(C(=O)c2nn(C)c3ccccc23)CC1` are -0.608%, 0.688%, 0.457%, -6.15% and 9.59%.
For the compound `N#Cc1ccc(CN2CCC3(CNc4ccccc4[S+](=O)([O-])N3)C2)cc1` (stereo not given), the activity change, negative = inhibition is -5.55% in assay [1]; -4.92% in assay [2]; -0.98% in assay [3]; -4.56% in assay [4]; -5.98% in assay [5].
As to `CCOC(=O)C(Cc1cccc(N2CCN([S+](=O)([O-])c3ccccc3Cl)CC2)c1)OC` (stereo not given), the activity change, negative = inhibition in assay [1] was -6.23%; in assay [2] it was -6.58%; in assay [3] it was -2.35%; in assay [4], -26.9%; in assay [5] it was -9.23%.
For the compound `O=C(c1n[nH]c2ccccc12)N1CC2CC(C1)[C@H]1CCCC(=O)N1C2` (stereo not given in full), the activity change, negative = inhibition in assay [1] was -2.58%; in assay [2], -0.99%; in assay [3] it was -1.04%; in assay [4], -8.7%; in assay [5] it was 9.66%.
In the same order, the values of `Nc1ccc(-n2nc(C(F)(F)F)cc2C(F)(F)F)cc1` are 4.35%, 12.3%, 13.3%, -2.15% and 9.69%.
On to `CCC(C)NC(=O)c1ccc2c(=O)n(C(C)C)c3nn(CC(=O)NC(C)C)c(=O)n3c2c1` (stereo not given), for which the activity change, negative = inhibition in assay [1] was 5.17%; in assay [2], 0%; in assay [3], 6.35%; in assay [4] it was 1%; in assay [5], 2.71%.
In the same order, the values of `NCCc1cnc[nH]1` are 4.09%, 11.4%, 92%, -0.9% and 10.2%.
In the same order, the values of `COc1ccc(CN2C(=O)c3cc4ccccc4n3CC2(C)C(=O)NCc2ccccc2)cc1` (stereo not given) are -4.97%, 3.35%, -3.5%, -6.36% and -3%.
On to `CC(C)OCCCN1C(=O)c2cc3occc3n2CC1(C)C(=O)NC1CCCCCCC1` (stereo not given), for which the activity change, negative = inhibition in assay [1] is 3.23%; in assay [2], 4.71%; in assay [3], 10.7%; in assay [4], -0.834%; in assay [5], 2.01%.
The matching figures for `CC(C)OCCCn1c(=O)c2ccccc2n2c(=O)n(CC(=O)Nc3cc(F)ccc3F)nc12`: -2.41%, 2.23%, 1.78%, -7.73% and -8.11%.
On to `Cc1ccc(CNC(=O)N2CCn3cccc3C2C(C)C)cc1` (stereo not given), for which the activity change, negative = inhibition in assay [1] stood at 13.1%; in assay [2] it was 2.05%; in assay [3], 9.82%; in assay [4], 2.68%; in assay [5] it was 9.58%.
Consider `O=C(Cn1ccc2cc(S(=O)(=O)N3CCCC3)ccc21)NC1CCCC1`, for which the activity change, negative = inhibition is 3.11% in assay [1]; 0% in assay [2]; 0.229% in assay [3]; 4.32% in assay [4]; -0.052% in assay [5].
The matching figures for `CCCn1c(=O)c2ccc(C(=O)NCC(C)C)cc2n2c(SCC(=O)c3ccc(OC)cc3)nnc12`: 2.39%, 0%, 2.22%, 5.47% and 2.25%.
As for `C=C(C)[C@@H]1CC[C@]2(C(=O)O)CC[C@]3(C)[C@H](CCC4[C@@]5(C)CCC(=O)C(C)(C)C5C(O)C[C@]43C)C12` (stereo not given in full), the activity change, negative = inhibition in assay [1] is 0%; in assay [2], -5.87%; in assay [3] it was 0.281%; in assay [4] it was -17.7%; in assay [5], -0.395%.
With `C[C@H](NCc1ccc(OCc2ccccc2F)cc1)C(N)=O`, the activity change, negative = inhibition is 4.96% in assay [1]; 9.14% in assay [2]; 9.04% in assay [3]; -9.69% in assay [4]; 5.83% in assay [5].
In the same order, the values of `CC(CNC(=O)c1cc2n(n1)CC(C)(C(=O)NC1CCCCCC1)N(C)C2=O)c1ccccc1` (stereo not given) are 8.79%, 2.51%, 3.89%, 10.2% and 4.33%.
In the same order, the values of `Cc1ccc(NC(=O)C(=O)NC2CC(C)(C)NC(C)(C)C2)cc1` are 3.51%, 0.15%, 0.137%, -11.5% and -3.59%.
The matching figures for `COc1cccc(N2C(=O)c3cc4oc(C)cc4n3CC2(C)C(=O)NC2CCCCCC2)c1` (stereo not given): -4.04%, 4.26%, -4.36%, 3.07% and -3.14%.
As to `O=C(c1ccccc1Cl)N1CCCC(C(=O)N2CCC(c3ccccc3)CC2)C1` (stereo not given), the activity change, negative = inhibition in assay [1] was -6.22%; in assay [2] it was 0.321%; in assay [3] it was -0.89%; in assay [4], -14.4%; in assay [5] it was 3.42%.
The matching figures for `O=C(Cn1ccc2cc(S(=O)(=O)N3CCCCC3)ccc21)NC1CCCCC1`: 6.6%, 0%, 1.56%, 5.06% and -0.199%.
On to `CCO[C@H]1CN(C(=O)Cc2ccccc2OCc2ccccc2)C[C@@H]1O`, for which the activity change, negative = inhibition is -5.32% in assay [1]; -6.78% in assay [2]; -3.26% in assay [3]; -6.65% in assay [4]; -5.01% in assay [5].
In the same order, the values of `CN(CC(=O)N1CCC(Cc2ccccc2)CC1)S(=O)(=O)c1ccc2c(c1)CCC(=O)N2` are -2.85%, 1.39%, 6.3%, 5.12% and 1.84%.
Take `CCC(C)/C=C(C)/C=C/C1=CC2=C(Cl)C(=O)C(C)(OC(C)=O)C(=O)C2=CN1C1CCCCN(C(CCC(N)=O)C(=O)O)C1=O` (stereo not given): the activity change, negative = inhibition in assay [1] was -3.72%; in assay [2], -7.93%; in assay [3], 4.66%; in assay [4], -19.6%; in assay [5] it was -2.69%.
